# Assay results taken from the supplement of paper PMC8728848.
# This is one part of the list.
# Legend:
# Assay in all cases: glycan array binding signal (z-score within array); higher = stronger binding
# Details in all cases: glycan notation: IUPAC condensed, linker removed
# [1] = target: Fuc(a1-2)[Gal(a1-4)]Gal(b1-4)GlcNAc
# How it was run: (§1)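 The binding signal is a Z-score computed within each array and averaged over linkers. Arrays of the same protein sequence at different concentrations or buffers were also averaged together. Data originate from 3228 arrays in the Consortium for Functional Glycomics database, kept only where the protein sequence was available.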
# [2] = target: Fuc(a1-2)[GalNAc(a1-3)]Gal
# How it was run: as §1
# [3] = target: Fuc(a1-2)[GalNAc(a1-3)]Gal(b1-3)GalNAc(a1-3)[Fuc(a1-2)]Gal(b1-4)GlcNAc
# How it was run: as §1
# [4] = target: Fuc(a1-2)[GalNAc(a1-3)]Gal(b1-3)GlcNAc
# How it was run: as §1
# [5] = target: Fuc(a1-2)[GalNAc(a1-3)]Gal(b1-3)GlcNAc(b1-2)Man(a1-3)[Fuc(a1-2)[GalNAc(a1-3)]Gal(b1-3)GlcNAc(b1-2)Man(a1-6)]Man(b1-4)GlcNAc(b1-4)GlcNAc
# How it was run: as §1
# [6] = target: Fuc(a1-2)[GalNAc(a1-3)]Gal(b1-4)Glc
# How it was run: as §1
# [7] = target: Fuc(a1-2)[GalNAc(a1-3)]Gal(b1-4)GlcNAc
# How it was run: as §1
# [8] = target: Fuc(a1-2)[GalNAc(a1-3)]Gal(b1-4)GlcNAc(b1-2)Man(a1-3)[Fuc(a1-2)[GalNAc(a1-3)]Gal(b1-4)GlcNAc(b1-2)Man(a1-6)]Man(b1-4)GlcNAc(b1-4)GlcNAc
# How it was run: as §1
# [9] = target: Fuc(a1-2)[GalNAc(a1-3)]Gal(b1-4)GlcNAc(b1-3)Gal(b1-4)GlcNAc
# How it was run: as §1
# [10] = target: Fuc(a1-2)[GalNAc(a1-3)]Gal(b1-4)GlcNAc(b1-3)Gal(b1-4)GlcNAc(b1-3)Gal(b1-4)GlcNAc
# How it was run: as §1
# [11] = target: Fuc(a1-2)[GalNAc(a1-3)]Gal(b1-4)[Fuc(a1-3)]GlcNAc
# How it was run: as §1
# [12] = target: Fuc(a1-2)[GalNAc(a1-4)]Gal(b1-4)GlcNAc
# How it was run: as §1
# [13] = target: Fuc(a1-2)[GalNAc(b1-3)]Gal
# How it was run: as §1
# [14] = target: Fuc(a1-3)GlcNAc
# How it was run: as §1
# [15] = target: Fuc(a1-3)[Gal(b1-4)]Glc6S
# How it was run: as §1
# [16] = target: Fuc(a1-3)[Gal(b1-4)]GlcNAc
# How it was run: as §1
# [17] = target: Fuc(a1-3)[Gal(b1-4)]GlcNAc(b1-2)Man(a1-3)[Fuc(a1-3)[Gal(b1-4)]GlcNAc(b1-2)Man(a1-6)]Man(b1-4)GlcNAc(b1-4)GlcNAc
# How it was run: as §1
# [18] = target: Fuc(a1-3)[Gal(b1-4)]GlcNAc(b1-3)Gal(b1-3)[Fuc(a1-4)]GlcNAc
# How it was run: as §1
# [19] = target: Fuc(a1-3)[Gal(b1-4)]GlcNAc(b1-3)GalNAc
# How it was run: as §1
# [20] = target: Fuc(a1-3)[Gal(b1-4)]GlcNAc(b1-4)Gal(b1-4)[Fuc(a1-3)]GlcNAc
# How it was run: as §1
# [21] = target: Fuc(a1-3)[Gal(b1-4)]GlcNAc(b1-4)Gal(b1-4)[Fuc(a1-3)]GlcNAc(b1-4)Gal(b1-4)[Fuc(a1-3)]GlcNAc
# How it was run: as §1
# [22] = target: Fuc(a1-3)[Gal(b1-4)]GlcNAc(b1-6)[Gal(b1-3)GlcNAc(b1-3)]Gal(b1-4)Glc
# How it was run: as §1
# [23] = target: Fuc(a1-3)[Gal(b1-4)]GlcNAc6S
# How it was run: as §1
# [24] = target: Fuc(a1-3)[Gal3S(b1-4)]GlcNAc
# How it was run: as §1
# [25] = target: Fuc(a1-3)[Gal3S(b1-4)]GlcNAc6S
# How it was run: as §1
# [26] = target: Fuc(a1-3)[GalNAc(b1-4)]GlcNAc
# How it was run: as §1
# [27] = target: Fuc(a1-4)GlcNAc
# How it was run: as §1
# [28] = target: Fuc(b1-3)GlcNAc
# How it was run: as §1
# [29] = target: Gal(a1-2)Gal
# How it was run: as §1
# [30] = target: Gal(a1-3)Gal
# How it was run: as §1
# [31] = target: Gal(a1-3)Gal(b1-3)GlcNAc
# How it was run: as §1
# [32] = target: Gal(a1-3)Gal(b1-3)GlcNAc(b1-2)Man(a1-3)[Gal(a1-3)Gal(b1-3)GlcNAc(b1-2)Man(a1-6)]Man(b1-4)GlcNAc(b1-4)GlcNAc
# How it was run: as §1
# [33] = target: Gal(a1-3)Gal(b1-3)[Fuc(a1-4)]GlcNAc(b1-2)Man(a1-3)[Gal(a1-3)Gal(b1-3)[Fuc(a1-4)]GlcNAc(b1-2)Man(a1-6)]Man(b1-4)GlcNAc(b1-4)GlcNAc
# How it was run: as §1
# [34] = target: Gal(a1-3)Gal(b1-4)Glc
# How it was run: as §1
# [35] = target: Gal(a1-3)Gal(b1-4)GlcNAc
# How it was run: as §1
# [36] = target: Gal(a1-3)Gal(b1-4)GlcNAc(b1-3)GalNAc
# How it was run: as §1
# [37] = target: Gal(a1-3)Gal(b1-4)[Fuc(a1-3)]GlcNAc
# How it was run: as §1
# [38] = target: Gal(a1-3)Gal(b1-4)[Fuc(a1-3)]GlcNAc(b1-2)Man(a1-3)[Gal(a1-3)Gal(b1-4)[Fuc(a1-3)]GlcNAc(b1-2)Man(a1-6)]Man(b1-4)GlcNAc(b1-4)GlcNAc
# How it was run: as §1
binder,measurement,setting,value
"ZG-16 (Homo sapiens), O60844 (protein) IQARSSSYSGEYGSGGGKRFSHSGNQLDGPITALRVRVNTYYIVGLQVRYGKVWSDYVGGRNGDLEEIFLHPGESVIQVSGKYKWYLKKLVFVTDKGRYLSFGKDSGTSFNAVPLHPNTVLRFISGRSGSLIDAIGLHWDVYPTSCSRCSRGSDDDDKAEPRGPTIKPCPPCKCPAPNLLGGPSVFIFPPKIKDVLMISLSPIVTCVVVDVSEDDPDVQISWFVNNVEVHTAQTQTHREDYNSTLRVVSALPIQHQDWMSGKEFKCKVNNKDLPAPIERTISKPKGSVRAPQVYVLPPPEEEMTKKQVTLTCMVTDFMPEDIYVEWTNNGKTELNYKNTEPVLDSDGSYFMYSKLRVEKKNWVERNSYSCSVVHEGLHNHHTTKSFSRTPGKRTYHHHHHHARKLTR",glycan array binding signal (z-score),[1],-0.159
same,glycan array binding signal (z-score),[2],-0.202
same,glycan array binding signal (z-score),[3],-0.203
same,glycan array binding signal (z-score),[4],-0.033
same,glycan array binding signal (z-score),[5],-0.213
same,glycan array binding signal (z-score),[6],-0.169
same,glycan array binding signal (z-score),[7],-0.199
same,glycan array binding signal (z-score),[8],-0.214
same,glycan array binding signal (z-score),[9],-0.219
same,glycan array binding signal (z-score),[10],-0.168
same,glycan array binding signal (z-score),[11],-0.203
same,glycan array binding signal (z-score),[12],-0.201
same,glycan array binding signal (z-score),[13],-0.191
same,glycan array binding signal (z-score),[14],-0.179
same,glycan array binding signal (z-score),[15],-0.188
same,glycan array binding signal (z-score),[16],-0.184
same,glycan array binding signal (z-score),[17],0.273
same,glycan array binding signal (z-score),[18],-0.197
same,glycan array binding signal (z-score),[19],-0.168
same,glycan array binding signal (z-score),[20],-0.177
same,glycan array binding signal (z-score),[21],-0.161
same,glycan array binding signal (z-score),[22],-0.196
same,glycan array binding signal (z-score),[23],-0.174
same,glycan array binding signal (z-score),[24],-0.148
same,glycan array binding signal (z-score),[25],-0.158
same,glycan array binding signal (z-score),[26],-0.158
same,glycan array binding signal (z-score),[27],0.116
same,glycan array binding signal (z-score),[28],-0.162
same,glycan array binding signal (z-score),[29],-0.229
same,glycan array binding signal (z-score),[30],-0.229
same,glycan array binding signal (z-score),[31],-0.051
same,glycan array binding signal (z-score),[32],-0.212
same,glycan array binding signal (z-score),[33],-0.184
same,glycan array binding signal (z-score),[34],-0.246
same,glycan array binding signal (z-score),[35],-0.227
same,glycan array binding signal (z-score),[36],-0.189
same,glycan array binding signal (z-score),[37],-0.216
same,glycan array binding signal (z-score),[38],-0.158
